{"source": "the BET-seq Pho4 binding data (Le et al. 2018)", "note": "The other results are listed elsewhere or left out. The energies were worked out here from pooled read counts, against the library average; single values are noisy."}
{"target": "T1, Pho4 (S. cerevisiae) (UniProt P07270)", "T1 sequence": "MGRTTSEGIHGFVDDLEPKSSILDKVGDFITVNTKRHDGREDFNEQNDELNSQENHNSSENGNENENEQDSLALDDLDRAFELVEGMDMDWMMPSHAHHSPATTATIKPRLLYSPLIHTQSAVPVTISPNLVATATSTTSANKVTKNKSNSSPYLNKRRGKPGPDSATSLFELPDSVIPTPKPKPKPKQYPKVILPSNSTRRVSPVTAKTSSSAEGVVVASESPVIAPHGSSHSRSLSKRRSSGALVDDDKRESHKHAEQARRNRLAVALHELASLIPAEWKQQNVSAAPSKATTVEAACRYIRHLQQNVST", "experiment": "relative binding free energy (BET-seq); higher = weaker binding", "settings": "reference: library average", "units": {"relative binding free energy": "kcal/mol"}}
{"sequence": "AGGAACACGTGTGTAA", "relative binding free energy": 0.08}
{"sequence": "AGGTGCACGTGCGAAA", "relative binding free energy": 0.05}
{"sequence": "AAGATCACGTGTGTAT", "relative binding free energy": 0.04}
{"sequence": "CAGGTCACGTGGGGGT", "relative binding free energy": -0.02}
{"sequence": "GGTAGCACGTGGTGAT", "relative binding free energy": -0.05}
{"sequence": "GGGTACACGTGTGGAT", "relative binding free energy": 0.1}
{"sequence": "GCTTTCACGTGCGGGC", "relative binding free energy": 0.44}
{"sequence": "CTTGTCACGTGTGTAT", "relative binding free energy": 0.21}
{"sequence": "TATATCACGTGCATTA", "relative binding free energy": 0.2}
{"sequence": "AGGGACACGTGTTTTG", "relative binding free energy": 0.06}
{"sequence": "GTTTGCACGTGCAATT", "relative binding free energy": 0.03}
{"sequence": "TATTGCACGTGGATGG", "relative binding free energy": 0.12}
{"sequence": "TCAATCACGTGTTATG", "relative binding free energy": 0.02}
{"sequence": "TTAGTCACGTGTTATC", "relative binding free energy": 0.03}
{"sequence": "TCTGTCACGTGTGGGA", "relative binding free energy": 0.1}
{"sequence": "GTGTACACGTGCGGTA", "relative binding free energy": 0.02}
{"sequence": "TTGTACACGTGTGAAA", "relative binding free energy": 0.09}
{"sequence": "ATGTGCACGTGGCTCG", "relative binding free energy": -0.03}
{"sequence": "AATAACACGTGGTGGG", "relative binding free energy": -0.07}
{"sequence": "ACAATCACGTGGTGTT", "relative binding free energy": 0.09}
{"sequence": "AGAGTCACGTGTGGCA", "relative binding free energy": 0.07}
{"sequence": "AGGGACACGTGAGTCT", "relative binding free energy": 0.27}
{"sequence": "TTGCGCACGTGGTGAT", "relative binding free energy": -0.22}
{"sequence": "AAGCTCACGTGTGTTA", "relative binding free energy": 0.27}
{"sequence": "GAAGACACGTGTTGAG", "relative binding free energy": 0.05}
{"sequence": "GCTGGCACGTGGTAAA", "relative binding free energy": 0}
{"sequence": "TCGGTCACGTGAGTTA", "relative binding free energy": 0.29}
{"sequence": "GGCGGCACGTGTTGTG", "relative binding free energy": -0.02}
{"sequence": "GATGCCACGTGGGTAT", "relative binding free energy": -0.04}
{"sequence": "GTTAACACGTGATAGG", "relative binding free energy": 0.11}
{"sequence": "TATTGCACGTGGGTTT", "relative binding free energy": -0.12}
{"sequence": "TTATTCACGTGCTGCG", "relative binding free energy": 0.21}
{"sequence": "AGGTGCACGTGTAAGG", "relative binding free energy": 0.03}
{"sequence": "GTAATCACGTGGTCGG", "relative binding free energy": 0.01}
{"sequence": "GATTTCACGTGATGCG", "relative binding free energy": 0.31}
{"sequence": "AGTATCACGTGGAGCT", "relative binding free energy": 0.27}
{"sequence": "TGGACCACGTGGGTTT", "relative binding free energy": -0.19}
{"sequence": "GTTAACACGTGTAGGC", "relative binding free energy": 0.09}
{"sequence": "TGTGACACGTGAAGGT", "relative binding free energy": 0.3}
{"sequence": "TTAGCCACGTGATTGA", "relative binding free energy": 0.22}
{"sequence": "ATGTTCACGTGCTGGC", "relative binding free energy": 0.27}
{"sequence": "ACGTTCACGTGTTTTG", "relative binding free energy": 0.1}
{"sequence": "GTTGTCACGTGCCGTT", "relative binding free energy": 0.2}
{"sequence": "GTTGGCACGTGTGGGA", "relative binding free energy": 0.09}
{"sequence": "AAGGTCACGTGGGCTA", "relative binding free energy": 0.06}
{"sequence": "ATAGACACGTGAAGAT", "relative binding free energy": 0.38}
{"sequence": "AGGAGCACGTGCGTGA", "relative binding free energy": -0.25}
{"sequence": "TGGTACACGTGAATTT", "relative binding free energy": 0.29}
{"sequence": "AACGGCACGTGGTTTT", "relative binding free energy": -0.18}
{"sequence": "GCGGGCACGTGTGTGA", "relative binding free energy": -0.17}
{"sequence": "GGTCTCACGTGTCAGT", "relative binding free energy": 0.29}
{"sequence": "CATGTCACGTGTTCGT", "relative binding free energy": -0.02}
{"sequence": "GTGAACACGTGGGATA", "relative binding free energy": 0.11}
{"sequence": "TCAGCCACGTGGTGGT", "relative binding free energy": -0.13}
{"sequence": "ACGGGCACGTGCTGTG", "relative binding free energy": -0.23}
{"sequence": "GGGAGCACGTGTAGTC", "relative binding free energy": -0.1}
{"sequence": "GGTTCCACGTGGGGGT", "relative binding free energy": -0.04}
{"sequence": "GGTGGCACGTGTTATG", "relative binding free energy": -0.01}
{"sequence": "GTTTTCACGTGGGTTC", "relative binding free energy": 0.36}
{"sequence": "TTGGTCACGTGTTCTT", "relative binding free energy": 0.08}
{"sequence": "TTTGACACGTGGGAAG", "relative binding free energy": -0.15}
{"sequence": "AAAGTCACGTGGTGCT", "relative binding free energy": 0.01}
{"sequence": "TGTACCACGTGTCGGT", "relative binding free energy": 0.04}
{"sequence": "TAAGTCACGTGAATGG", "relative binding free energy": 0.32}
{"sequence": "TGGAGCACGTGAACGT", "relative binding free energy": 0.09}
{"sequence": "CTATTCACGTGAGTGA", "relative binding free energy": 0.48}
{"sequence": "AGGGACACGTGAGAGA", "relative binding free energy": 0.16}
{"sequence": "TTATGCACGTGAGTAC", "relative binding free energy": 0.13}
{"sequence": "AGGTACACGTGACAGG", "relative binding free energy": 0.26}
{"sequence": "AGAGCCACGTGAGGTG", "relative binding free energy": 0.11}
{"sequence": "TTGCGCACGTGCTGTG", "relative binding free energy": -0.26}
{"sequence": "GCAGGCACGTGAGGGT", "relative binding free energy": 0.16}
{"sequence": "TATATCACGTGTGGCA", "relative binding free energy": 0.06}
